# The supplement of paper PMC4723716
# ± gives the uncertainty stated by the source. Whole data set: some 9,900 compounds, median “viability index relative to DMSO control” near 1, cut for the lowest 2% near 0.85. The list shows a part of the results.
# System: Plasmodium falciparum NF54 stage V gametocytes
# Experiment: viability index relative to DMSO control (fraction); higher = less gametocyte killing
# Conditions: 2.5 µM, library set: Broad Institute DOS, incubation time: 72 h
# Procedure: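 Broad DOS informer set and blood-stage-active DOS compounds screened in duplicate at 2.5 µM against P. falciparum NF54 stage V gametocytes with the serum-free one-step SaLSSA (1536-well): 72 h at 37 °C under low oxygen, then saponin lysis and MitoTracker Red CMXRos staining, with high-content imaging. Viability index = viable-object count divided by the plate mean of DMSO wells (0 = killed, about 1 = inactive).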
row,Compound,viability index
1,Cc1ccccc1-c1ccc2c(c1)O[C@@H](CN(C)C(=O)Nc1ccc(C(F)(F)F)cc1)[C@H](C)CN([C@@H](C)CO)S2(=O)=O,1.09 ± 0.078
2,CN1[C@@H](CO)[C@@H]2c3ccccc3N(C(=O)Nc3cc(F)ccc3F)C[C@@H]21,1.04 ± 0.091
3,CS(=O)(=O)N1CC(=O)N2[C@H](C1)[C@@H](c1ccc(C#CCC3CCCC3)cc1)[C@@H]2CO,0.98 ± 0.14
4,O=S(=O)(c1cccc(F)c1)N1CC[C@@H]2[C@H](CO)Nc3ccc(Br)cc3[C@@H]21,1.09 ± 0.023
5,CCS(=O)(=O)N1Cc2cc(C(=O)NCCOC)nc(-c3cccc(-c4ccncc4)c3)c2[C@@H]1CCO,1 ± 0.031
6,C[C@@H]1CCCCO[C@H](CN(C)CC2CCCCC2)[C@H](C)CN([C@@H](C)CO)C(=O)c2cc(NC(=O)Nc3ccc(C(F)(F)F)cc3)ccc2O1,0.935 ± 0.038
7,O=C(NC1CCC1)[C@@H]1[C@@H](CO)[C@@H]2Cn3c(ccc(-c4ccncc4)c3=O)[C@H]1N2Cc1cocn1,1.04 ± 0.083
8,CN(C)C(=O)c1ccc(-c2ccc3c(c2)[C@@H]2[C@@H](CCN2C(=O)C2CCCC2)[C@H](CO)N3C)cc1,0.945 ± 0.058
9,CNC[C@@H]1OCc2cnnn2CCCC(=O)N([C@H](C)CO)C[C@H]1C,1.0046 ± 0.00089
10,CNC[C@@H]1OCCCC[C@H](C)Oc2ccc(NS(=O)(=O)c3ccc(F)cc3)cc2C(=O)N([C@@H](C)CO)C[C@@H]1C,1.12 ± 0.061
11,N#C[C@H]1[C@@H](c2ccccc2C2=CCCCC2)[C@H](CO)N1C(=O)c1ccccn1,1.08 ± 0.13
12,C[C@@H]1CC(=O)N[C@H](c2ccccc2)C/C=C\C[C@H](c2ccccc2)NC1=O,0.936 ± 0.041
13,COc1ccc(C(=O)N2C[C@@H]3[C@H](c4ccccc42)[C@H](CO)N3C(=O)NC(C)C)cc1,1.02 ± 0.027
14,COc1cccc(-c2ccc3c(c2)O[C@@H](CN(C)Cc2cccnc2)[C@H](C)CN([C@H](C)CO)S3(=O)=O)c1,1.02 ± 0.013
15,CCC(=O)N1C[C@@H](O)COC[C@H]2O[C@H](CC(=O)NCc3ccc(Oc4ccccc4)cc3)CC[C@@H]21,0.987 ± 0.031
16,O=C(C[C@@H]1CC[C@@H](NC(=O)CN2CCOCC2)[C@@H](CO)O1)NC1CCC1,1.09 ± 0.067
17,O=C(C[C@@H]1C[C@@H]2c3cc(NC(=O)C4CCOCC4)ccc3O[C@@H]2[C@H](CO)O1)NCCN1CCCCC1,0.989 ± 0.056
18,CN(C)CC(=O)N1[C@@H](C#N)[C@@H](c2ccc(-c3cccc(C(=O)N(C)C)c3)cc2)[C@@H]1CO,1.07 ± 0.023
19,Cc1noc(C)c1NC(=O)Nc1cccc2c1O[C@@H](CN(C)Cc1ccc(C(=O)Nc3ccccc3N)cc1)[C@@H](C)CN([C@H](C)CO)C2=O,0.99 ± 0.16
20,COc1ccc2c3c([C@@H](CO)N(C[C@]33CN(Cc4ccccc4F)C3)C(=O)Nc3ccc(F)cc3)n(C)c2c1,0.791 ± 0.066
21,CO[C@H](CN(C)Cc1ccc(-c2ccccn2)cc1)[C@H](C)CN(C(=O)Nc1ccc(F)cc1)[C@@H](C)CO,1.12 ± 0.084
22,CO[C@H]1CN(C)C(=O)c2ccc(NS(C)(=O)=O)cc2OC[C@H](C)N(CC2CC2)C[C@@H]1C,1.03 ± 0.087
23,COc1cccc(S(=O)(=O)N(C)C[C@@H]2OCc3ccccc3-c3c(n(C)c4ccccc34)C(=O)N([C@@H](C)CO)C[C@H]2C)c1,0.977 ± 0.016
24,CO[C@@H]1CC[C@H]2CCN(C)C(=O)[C@H](C)CN(C)C(=O)c3cc(C#N)ccc3OC[C@H]1O2,1.1 ± 0.08

row,Compound,viability index
1,COCC(=O)NC[C@@H]1[C@@H](c2ccccc2)[C@H](CO)N1C(=O)c1ccccc1,0.9794 ± 0.0038
2,Cc1noc(C)c1NC(=O)Nc1ccc2c(c1)CC(=O)N([C@@H](C)CO)C[C@H](C)[C@@H](CN(C)Cc1ccc(C(F)(F)F)cc1)O2,0.967 ± 0.12
3,COc1cccc(NC(=O)N2CC3(C2)[C@@H](c2ccccc2)[C@@H](CO)N3C(C)=O)c1,1.1 ± 0.12
4,CN(C)CC(=O)N1[C@H](C#N)[C@H](c2ccc(-c3cccc(C(=O)N(C)C)c3)cc2)[C@@H]1CO,1.133 ± 0.0056
5,COc1ccccc1-c1cn(CC[C@H]2CC[C@H](NC(=O)C3CCCCC3)[C@@H](CO)O2)nn1,0.997 ± 0.11
6,Cc1noc(C)c1NC(=O)N1C[C@H](O)COC[C@@H]2O[C@H](CC(=O)NCC3CC3)CC[C@H]21,1.06 ± 0.093
7,CCCNC(=O)N1[C@@H](C#N)[C@H](c2ccc(C#Cc3cccc(F)c3)cc2)[C@@H]1CO,1.05 ± 0.073
8,N#Cc1cccc(-c2ccc([C@H]3[C@@H]4CN(C(=O)c5ccc6c(c5)OCO6)C[C@H]3N4)cc2)c1,1.09 ± 0.072
9,O=C(Cc1ccccn1)N1[C@H](CO)[C@@H]2c3ccccc3NC[C@@H]21,1 ± 0.038
10,COc1ccc(S(=O)(=O)Nc2ccc3c(c2)C(=O)N([C@H](C)CO)C[C@H](C)[C@H](CN(C)Cc2ccc(C(F)(F)F)cc2)OCCCC[C@H](C)O3)cc1,0.929 ± 0.16
11,CCCC(=O)Nc1ccc2c(c1)OC[C@H](C)N(CC1CCOCC1)C[C@H](C)[C@@H](OC)CN(C)C2=O,1.07 ± 0.012
12,C[C@@H]1CN([C@H](C)CO)C(=O)c2cc(NC(=O)Cc3ccccc3)ccc2O[C@@H](C)CCCCO[C@H]1CN(C)Cc1ccncc1,1.112 ± 0.011
13,COc1ccc(C(=O)Nc2ccc3c(c2)C(=O)N(C)[C@H]2CC[C@H](CC(=O)NCC4CC4)O[C@@H]2CO3)cc1,0.987 ± 0.052
14,C[C@@H]1CCCCO[C@@H](CN(C)C(=O)Nc2ccc3c(c2)OCO3)[C@H](C)CN([C@H](C)CO)C(=O)c2cc(NS(=O)(=O)c3ccc(F)cc3)ccc2O1,1.1 ± 0.13
15,C[C@H](CO)N1C[C@H](C)[C@@H](CN(C)Cc2ccc(C(F)(F)F)cc2)OCCCC[C@H](C)Oc2ccc(NC(=O)Nc3cccc4ccccc34)cc2C1=O,1.117 ± 0.0064
16,CC(C)[C@H]1COCn2nncc2CC[C@H](C)C(=O)N1,1.09 ± 0.028
17,CCCN1C[C@H](C)[C@@H](OC)CN(C)C(=O)c2cc(NC(=O)C3CCC3)ccc2OC[C@H]1C,1.066 ± 0.0069
18,CO[C@H]1CN(C)C(=O)c2ccc(NC(=O)NC(C)C)cc2OC[C@H](C)N(Cc2ccc(-c3ccccn3)cc2)C[C@@H]1C,1.06 ± 0.057
19,N#C[C@H]1N[C@H](CO)[C@@H]1c1ccc(-c2cccc(F)c2)cc1,1.07 ± 0.051
20,COc1ccc(NC(=O)N(C)C[C@H]2Oc3ccc(NC(=O)Nc4cccc5ccccc45)cc3CC(=O)N([C@H](C)CO)C[C@@H]2C)cc1,0.968 ± 0.027
21,C[C@H]1CN([C@@H](C)CO)C(=O)c2cccc(NC(=O)Nc3ccc4c(c3)OCO4)c2O[C@H]1CN(C)S(C)(=O)=O,0.999 ± 0.083
22,COc1cccc(-c2ccc([C@@H]3[C@H](CO)N4C(=O)CN(C(=O)c5cccnc5)C[C@@H]34)cc2)c1,1.08 ± 0.073
23,CCS(=O)(=O)N1CC[C@@]2(CC1)CN([C@H](CO)c1c2c2ccc(OC)cc2n1C)C(=O)c1cccc(F)c1,0.9881 ± 0.0058
24,CN1CCCCN2[C@H](C1)[C@@H](c1ccc(-c3ccc(F)cc3)cc1)[C@@H]2CO,0.961 ± 0.016

row,Compound,viability index
1,COc1cccc(C(=O)Nc2ccc3c(c2)C(=O)N(C)[C@@H]2CC[C@@H](CC(=O)NCc4ccc(F)cc4)O[C@H]2CO3)c1,1.17 ± 0.067
2,CC(C)NC(=O)N1[C@H](CNC(=O)CN(C)C)[C@H](c2ccccc2)[C@@H]1CO,0.932 ± 0.075
3,CCC(=O)N1C[C@H](C)[C@H](OC)CN(C)C(=O)c2cc(NC(=O)Nc3ccc(Cl)cc3)ccc2OC[C@@H]1C,1.05 ± 0.012
4,CCCC#Cc1cnc2c(c1)C(=O)N([C@@H](C)CO)C[C@H](C)[C@@H](CN(C)C(=O)Nc1cc(F)ccc1F)O2,1.15 ± 0.088
5,CN1c2ccc(-c3ccc(F)cc3)cc2[C@@H]2[C@@H](CCN2C(=O)Cc2cccnc2)[C@@H]1CO,1.09 ± 0.061
6,C[C@H]1CN([C@@H](C)CO)C(=O)Cc2cc(NS(=O)(=O)c3cn(C)cn3)ccc2O[C@@H]1CN(C)Cc1ccc2c(c1)OCO2,1.08 ± 0.025
7,CCCC(=O)Nc1ccc2c(c1)OC[C@H](C)NC[C@H](C)[C@H](OC)CN(C)C2=O,1.04 ± 0.032
8,COc1ccccc1S(=O)(=O)N[C@@H]1C=C[C@H](CC(=O)N2CCOCC2)O[C@H]1CO,1.12 ± 0.097
9,CN1C(=O)c2cc(NC(=O)Cc3cccs3)ccc2OC[C@@H]2O[C@@H](CC(=O)NCCc3ccncc3)CC[C@H]21,1.06 ± 0.017
10,COc1ccc(S(=O)(=O)Nc2ccc3c(c2)CC(=O)N([C@H](C)CO)C[C@H](C)[C@H](CN(C)C(=O)Nc2c(C)noc2C)O3)cc1,1.01 ± 0.063
11,CCC(=O)Nc1ccc2c(c1)C(=O)N(C)C[C@H](OC)[C@@H](C)CN(Cc1nccs1)[C@H](C)CO2,1.072 ± 0.0019
12,CN(C[C@@H]1[C@@H](c2ccccc2)[C@@H](CO)N1Cc1ccccn1)S(C)(=O)=O,1.03 ± 0.018
13,COc1ccc(S(=O)(=O)Nc2ccc3c(c2)C(=O)N([C@@H](C)CO)C[C@H](C)[C@H](CN(C)Cc2ccc(C(F)(F)F)cc2)OCCCC[C@H](C)O3)cc1,0.987 ± 0.16
14,CCCNC(=O)N1CC[C@@]2(CC1)CN(Cc1cccc(OC)c1)[C@H](CO)c1[nH]c3cc(OC)ccc3c21,1.08 ± 0.065
15,CCC(=O)N1[C@@H](CO)[C@@H](c2ccccc2)C12CN(Cc1ccccc1Cl)C2,1.1 ± 0.028
16,O=C(Cc1cccnc1)N1[C@H](CNCC2CCC2)[C@H](c2ccccc2)[C@@H]1CO,1.01 ± 0.043
17,O=S(=O)(c1cccc(Cl)c1)N1[C@@H]2CNC[C@H]1[C@@H]2c1ccc(-c2cccnc2)cc1,1.125 ± 0.002
18,CO[C@@H]1CC[C@H]2CCN(C)C(=O)[C@H](C)CN(C)C(=O)c3cc(C#N)ccc3OC[C@@H]1O2,0.973 ± 0.056
19,O=C(Cc1ccncc1)N1CC(=O)N2[C@H](CO)[C@H](c3ccc(Br)cc3)[C@@H]2C1,1.1 ± 0.089
20,O=C(Nc1cccc(F)c1)N1CCCCN2[C@H](CO)[C@H](c3ccc(C#Cc4cccnc4)cc3)[C@@H]2C1,1.05 ± 0.024
21,CCCNC(=O)N1CC[C@@]2(CC1)CN([C@@H](CO)c1[nH]c3cc(OC)ccc3c21)C(=O)COC,0.921 ± 0.14
22,O=C(CN1CCOCC1)NC[C@@H]1N[C@@H](CO)[C@@H]1c1ccc(-c2ccccc2)cc1,1.05 ± 0.088
